The values below come from the antibiotic and cytotoxicity screens of Wong et al. (2023).

One assay concerns HSkMC. The assay is described as follows: cytotoxicity call (relative viability < 0.9). The note with it: 10 µM.
The next assay relates to HepG2. The assay is described as follows: cytotoxicity call (relative viability < 0.9). The note with it: 10 µM.
For a further assay, the system named is S. aureus RN4220. In words: growth inhibition call (relative growth <= 0.2). As to conditions: 50 µM.

The other results are listed elsewhere or left out.

As for `C[C@@H]1CCCCO[C@@H](CN(C)C(=O)CCCN(C)C)[C@H](C)CN([C@@H](C)CO)C(=O)c2cc(NC(=O)Nc3ccc(C(F)(F)F)cc3)ccc2O1`, the cytotoxicity call in the assay on HSkMC and in the assay with HepG2 was “inactive” throughout. For the same compound, the growth inhibition call in the assay with S. aureus RN4220 was “inactive”.
In the case of `NCCCC[C@@H]1NC(=O)[C@H]2C[C@@H](C(=O)O)[C@@H](c3cccc(OCCO)c3)N2C1=O`, the cytotoxicity call with HSkMC and in the assay on HepG2 was “inactive” throughout. Besides, the growth inhibition call with S. aureus RN4220 is “inactive”.
On to `Cc1noc(C)c1NC(=O)Nc1ccc2c(c1)CC(=O)N([C@H](C)CO)C[C@@H](C)[C@@H](CN(C)S(=O)(=O)c1ccccc1)O2`, for which the cytotoxicity call in the assay with HSkMC and in the assay on HepG2 was “inactive” throughout. Further, in the assay with S. aureus RN4220, the growth inhibition call was “inactive”.
Turning to `C[C@@H]1CN([C@H](C)CO)C(=O)c2c(c3ccccc3n2C)-c2ccccc2CO[C@H]1CN(C)S(=O)(=O)c1cn(C)cn1`, the cytotoxicity call in the assay with HSkMC and in the assay with HepG2 was “inactive” in each case. The growth inhibition call in the assay on S. aureus RN4220 was “inactive”.
Regarding `C[C@@H]1CN([C@@H](C)CO)C(=O)c2cccc(NS(=O)(=O)c3ccc(Cl)cc3)c2O[C@@H]1CN(C)S(C)(=O)=O`, the cytotoxicity call with HSkMC and in the assay on HepG2 was “inactive” each time. Besides, the growth inhibition call with S. aureus RN4220 was “inactive”.
Turning to `CCCNC(=O)NS(=O)(=O)c1ccc(Cl)cc1`, the cytotoxicity call with HSkMC and with HepG2 was “inactive” in each case. For the same compound, the growth inhibition call in the assay on S. aureus RN4220 was “inactive”.
Consider `C[C@@H]1CCCCO[C@H](CN(C)C(=O)C2CCCCC2)[C@@H](C)CN([C@@H](C)CO)C(=O)c2cc(NS(=O)(=O)c3cccs3)ccc2O1`, for which the cytotoxicity call in the assay with HSkMC and in the assay with HepG2 was “inactive” throughout. The growth inhibition call in the assay on S. aureus RN4220 was “inactive”.
Regarding `Cc1noc(C)c1NC(=O)Nc1ccc2c(c1)C(=O)N([C@@H](C)CO)C[C@H](C)[C@@H](CN(C)C(=O)c1ccccc1)OCCCC[C@@H](C)O2`, the cytotoxicity call in the assay on HSkMC and in the assay on HepG2 was “inactive” each time. Besides, in the assay with S. aureus RN4220, the growth inhibition call was “inactive”.
Turning to `CC(=O)OCC[N+](C)(C)C.[Cl-]`, the cytotoxicity call with HSkMC and with HepG2 was “inactive” each time. Moreover, the growth inhibition call in the assay with S. aureus RN4220 is “inactive”.
Take `Cc1ccc(S(=O)(=O)N(C)C[C@@H]2Oc3c(NC(=O)NC(C)C)cccc3C(=O)N([C@H](C)CO)C[C@H]2C)cc1`: the cytotoxicity call with HSkMC and with HepG2 was “inactive” in each case. In the assay on S. aureus RN4220, the growth inhibition call is “inactive”.
`COc1ccccc1CN(C)C[C@H]1OCc2ccccc2-c2c(n(C)c3ccccc23)C(=O)N([C@H](C)CO)C[C@@H]1C`: in the assay on HSkMC, the cytotoxicity call was “inactive”. In addition, the cytotoxicity call in the assay with HepG2 was “active”. Also, the growth inhibition call with S. aureus RN4220 is “inactive”.
Consider `CN(C)CC(=O)N[C@H]1CC[C@@H](CC(=O)NCCN2CCCCC2)O[C@H]1CO`, for which the cytotoxicity call in the assay with HSkMC and in the assay on HepG2 was “inactive” throughout. In addition, the growth inhibition call in the assay with S. aureus RN4220 was “inactive”.
For `Cc1ccc(S(=O)(=O)N(C)C[C@@H]2Oc3ccc(NS(=O)(=O)c4c(C)noc4C)cc3C(=O)N([C@H](C)CO)C[C@@H]2C)cc1`, the cytotoxicity call in the assay on HSkMC and with HepG2 was “inactive” in each case. Also, in the assay with S. aureus RN4220, the growth inhibition call was “inactive”.
With `CCO[C@H]1CN(CC)C[C@@H]1N`, the cytotoxicity call in the assay with HSkMC and in the assay with HepG2 was “inactive” each time. The growth inhibition call in the assay on S. aureus RN4220 is “inactive”.
As to `C[C@@H]1CN([C@@H](C)CO)C(=O)c2cc(NC(=O)c3ccncc3)ccc2O[C@@H](C)CCCCO[C@H]1CN(C)C(=O)NC1CCCCC1`, the cytotoxicity call with HSkMC and in the assay on HepG2 was “inactive” throughout. The growth inhibition call with S. aureus RN4220 is “inactive”.
In the case of `C[C@H]1CCCCO[C@H](CN(C)C(=O)Nc2ccccc2)[C@@H](C)CN([C@@H](C)CO)C(=O)c2cc(NS(=O)(=O)c3ccc(Cl)cc3)ccc2O1`, the cytotoxicity call in the assay on HSkMC and in the assay on HepG2 was “inactive” each time. For the same compound, the growth inhibition call in the assay with S. aureus RN4220 is “inactive”.
Take `C[C@@H]1CN([C@H](C)CO)C(=O)c2cc(NC(=O)Cc3ccccc3)ccc2O[C@@H](C)CCCCO[C@H]1CN(C)C(=O)Nc1ccc(F)cc1`: the cytotoxicity call in the assay on HSkMC and with HepG2 was “inactive” each time. Also, in the assay with S. aureus RN4220, the growth inhibition call is “inactive”.
As to `C[C@H](CO)N1C[C@H](C)[C@H](CN(C)C(=O)Nc2cccc3ccccc23)Oc2ccc(NC(=O)Cn3cnnn3)cc2CC1=O`, the cytotoxicity call in the assay on HSkMC and in the assay with HepG2 was “inactive” in each case. In the assay with S. aureus RN4220, the growth inhibition call is “inactive”.
Turning to `C[C@H]1CN([C@@H](C)CO)C(=O)CCCn2cc(nn2)CO[C@H]1CN(C)C(=O)Nc1cccc(C(F)(F)F)c1`, the cytotoxicity call in the assay with HSkMC and in the assay on HepG2 was “inactive” in each case. Also, the growth inhibition call with S. aureus RN4220 was “inactive”.
Take `C[C@@H]1CN([C@H](C)CO)C(=O)c2cc(NC(=O)Nc3ccc(F)cc3)ccc2O[C@@H](C)CCCCO[C@@H]1CN(C)Cc1ccc(C(F)(F)F)cc1`: the cytotoxicity call with HSkMC and in the assay with HepG2 was “inactive” throughout. In the assay with S. aureus RN4220, the growth inhibition call is “inactive”.
On to `C=CCN1C(=O)[C@]2(O[C@H](CCn3cc(CCO)nn3)[C@@H]([Si](C)(C)c3ccc(OC)cc3)[C@@H]2C)c2cc(N3CCC3=O)ccc21`, for which the cytotoxicity call with HSkMC and in the assay with HepG2 was “inactive” throughout. In the assay with S. aureus RN4220, the growth inhibition call was “inactive”.
For `Cc1noc(C)c1NC(=O)N(C)C[C@H]1Oc2cc(C#CCN(C)C)ccc2S(=O)(=O)N([C@H](C)CO)C[C@@H]1C`, the cytotoxicity call with HSkMC and in the assay on HepG2 was “inactive” throughout. The growth inhibition call with S. aureus RN4220 is “inactive”.
As to `O=C(N[C@H]1CC[C@H](CC(=O)N2CCOCC2)O[C@@H]1CO)c1ccc2c(c1)OCO2`, the cytotoxicity call in the assay on HSkMC and in the assay with HepG2 was “inactive” each time. In the assay with S. aureus RN4220, the growth inhibition call was “inactive”.
Take `C[C@@H]1CN([C@H](C)CO)C(=O)Cc2cc(N(C)C)ccc2O[C@@H]1CN(C)C(=O)Nc1ccc2c(c1)OCO2`: the cytotoxicity call in the assay with HSkMC and in the assay with HepG2 was “inactive” throughout. Besides, the growth inhibition call in the assay on S. aureus RN4220 was “inactive”.
With `C[C@@H]1CN([C@@H](C)CO)S(=O)(=O)c2ccc(C#CCN(C)C)cc2O[C@H]1CN(C)C(=O)c1ccccc1F`, the cytotoxicity call in the assay on HSkMC (human skeletal muscle cells) and in the assay on HepG2 was “inactive” throughout. In addition, the growth inhibition call in the assay on S. aureus RN4220 is “inactive”.
